Measured values published in the supplement of paper PMC3334620.
In all, about 33,000 sequences were measured (“E-score (-0.5 to 0.5)”: median about -0.035, highest 2% from about 0.35 on). This is one part of the list.

Biological target: T1, Pdr3 (UniProt P33200)
T1 sequence: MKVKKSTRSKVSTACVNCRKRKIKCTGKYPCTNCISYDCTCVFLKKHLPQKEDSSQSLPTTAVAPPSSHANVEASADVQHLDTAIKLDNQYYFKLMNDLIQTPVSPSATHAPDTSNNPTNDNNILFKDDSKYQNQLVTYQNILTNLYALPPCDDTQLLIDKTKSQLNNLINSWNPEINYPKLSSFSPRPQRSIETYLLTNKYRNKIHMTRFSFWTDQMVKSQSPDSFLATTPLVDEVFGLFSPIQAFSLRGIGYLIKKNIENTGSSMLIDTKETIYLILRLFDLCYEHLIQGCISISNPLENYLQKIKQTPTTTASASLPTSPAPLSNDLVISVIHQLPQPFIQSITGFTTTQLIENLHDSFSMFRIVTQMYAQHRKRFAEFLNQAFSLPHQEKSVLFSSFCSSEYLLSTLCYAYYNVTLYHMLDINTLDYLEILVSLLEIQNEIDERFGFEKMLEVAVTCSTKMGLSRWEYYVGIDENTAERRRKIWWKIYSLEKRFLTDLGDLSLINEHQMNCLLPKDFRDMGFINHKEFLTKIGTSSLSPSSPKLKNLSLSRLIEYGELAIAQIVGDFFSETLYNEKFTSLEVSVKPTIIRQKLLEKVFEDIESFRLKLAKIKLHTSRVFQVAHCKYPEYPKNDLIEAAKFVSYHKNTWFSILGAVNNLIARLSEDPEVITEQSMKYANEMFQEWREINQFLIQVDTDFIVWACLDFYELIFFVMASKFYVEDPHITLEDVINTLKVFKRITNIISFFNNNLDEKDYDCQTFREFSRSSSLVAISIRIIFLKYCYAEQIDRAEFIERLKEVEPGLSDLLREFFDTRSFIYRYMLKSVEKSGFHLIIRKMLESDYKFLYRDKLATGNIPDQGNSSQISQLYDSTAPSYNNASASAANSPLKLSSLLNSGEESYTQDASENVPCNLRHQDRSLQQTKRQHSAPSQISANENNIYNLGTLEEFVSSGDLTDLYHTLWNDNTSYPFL
Experiment: PBM E-score (8-mer binding enrichment) (E-score (-0.5 to 0.5)); higher = stronger / more preferred TF binding; most listed sequences are background and not binding sites
Conditions: protein concentration: 200 nM; construct: GST-full length
How it was run: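 Universal all-10-mer Agilent arrays, fresh or stripped once, were converted to double-stranded form by primer extension. GST-tagged yeast transcription factors from PURExpress in vitro transcription/translation, full-length or DNA-binding domain only, were applied at about 100-200 nM and detected with fluorescent anti-GST. After masliner normalisation, the Universal PBM Analysis Suite scored each ungapped eight-base word together with its reverse complement by E-score.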

Sequence	PBM E-score
AGTCGCAG	-0.123
GAAAGTTA	0.0742
GCCCTAGA	-0.289
CATGAGCG	0.0244
GACCTATC	0.119
AATAAACT	0.0459
AAGCACGC	-0.0203
ATGAGTAG	0.024
CGAGACAG	0.021
ACGTTGTC	-0.0301
CCTCAGTC	-0.131
GATGAAAA	0.0909
CTTCAACA	-0.11
AAATGCTC	0.0595
CTTCTTAA	-0.101
AGGGCGCG	-0.0829
AGCAATTC	0.0731
TGGGCTAA	-0.0141
AACGGTCG	0.0464
CCTCGGCG	0.376
AGGAGCCC	-0.0219
AAGTCGAC	0.156
AAAACACA	-0.0183
AAAAAAAG	0.0406
ATTCCATA	0.154

Sequence	PBM E-score
AAACTCAG	-0.121
CGCCCGAA	0.117
CCACCATC	-0.0466
CGACGGCC	0.0868
ACGAGCCG	0.134
ACAAGCTA	-0.252
GATCGCCC	0.00089
ACTAGGTC	0.0375
CGATTTAC	-0.00669
AATGTTTA	-0.127
ATTACCCA	-0.0954
TCTTATCA	-0.00735
ATGCAGCA	0.00559
CAACGGTG	-0.0539
CACCGCGA	0.032
ACGTCAAT	-0.149
AAAATTTC	0.00912
ACGGGGTG	0.0711
TGAATTAA	0.00397
AGATTGGG	0.0328
CCTTCACC	-0.0792
AGGAATTC	-0.00951
AAAACGCT	-0.241
CAACTATA	-0.194
ACCGTCCA	0.179

Sequence	PBM E-score
AGACACGC	-0.103
AATGGTAT	0.0151
GAGACGCC	0.0213
GTAACTCA	-0.141
TCCAGACA	-0.0374
GACTTGTA	-0.122
AGCCCAGG	-0.269
CCTCCTCA	-0.199
AACTGAGT	-0.0514
AAAGTGCA	-0.0229
ACCCATAC	-0.155
ACTGCCCT	-0.0837
AAAAAGGC	-0.00478
CAAACGGA	0.37
ACACTGCG	0.0149
CTACCTCC	0.0355
AAGGAGGG	-0.0665
ATGTGATG	-0.229
TCACCGGA	0.329
GGAGAAAC	0.132
CGCGGCGC	0.398
ACATAGAT	-0.085
CAAGAGAC	-0.28
ATCGCTGA	0.0401
CCCCACAC	-0.106

Sequence	PBM E-score
CCCCTTTC	0.00738
TAGCGAAA	-0.0832
TAGCTACA	-0.047
ACAGCTGT	-0.0906
TCGGCCGA	0.377
ATCAAAGC	0.0706
CGGGAGTA	0.294
GCAACAGC	-0.0537
GGGCCCAC	0.255
ACCGCTCA	0.00997
ATTTCGAC	-0.174
AATTTGAT	0.0365
CGTCGCTC	0.0274
TTCAGCAA	-0.239
ACAACCGC	0.202
TATCGGCA	0.101
CCCCAATC	-0.0459
ACTCGGAA	0.427
GGGGTGCA	0.233
CGACTGCG	0.0722
ACCATATA	0.0167
CGGATAAG	0.305
CGTGGCCC	-0.11
AATCTCGA	0.0359
AAGAGCGA	-0.156

Sequence	PBM E-score
GAAACTCA	-0.0846
GCAATCCA	-0.0294
GTCATGAC	0.115
ACCAAATG	0.0229
CGAAACAA	0.11
ACCCTAGT	-0.319
GAAAGATA	0.0374
GGTGGCCA	-0.0261
AATCCGAC	0.218
CGTACTAA	0.0211
AGTGGGCG	0.0424
CGACTGAA	0.0644
CTGTACTC	-0.245
ACCCCCCA	-0.252
CGCTCCGA	0.318
ACAATGGA	0.199
ACGCTTCC	0.204
GACTAAAC	-0.136
CAAGCGTG	-0.15
TCTATACA	-0.274
AGACTAGG	-0.3
ATCTTAGG	-0.166
AACCTCGT	-0.0839
CCCACAGA	-0.273
GTGGTGGA	-0.0783

Sequence	PBM E-score
ATCAGATA	-0.159
CGGATAGA	0.311
CGATTAGA	0.026
GGTACCTA	-0.0642
ACGTTTGA	0.0578
GCCAGAAC	-0.074
CTTGGCAC	-0.117
CGGGTAGC	0.17
ATATAGCC	0.118
CTTGGCCA	-0.0613
ATCTTCCA	-0.196
CGGTTGTC	0.134
GCGACTAA	0.0282
GCCTGTAA	-0.249
ATATCTAC	0.0754
AGCTCGAC	-0.055
CCCAGGCC	-0.116
ATTACCTA	0.0728
AGTTATAG	-0.228
GCCCAGCA	0.0207
AGTGAGAG	-0.178
CAGAGACG	-0.11
AGATAACC	-0.107
ACTACCAA	-0.0744
ACCGCGGA	0.488

Sequence	PBM E-score
AGCTTTAC	-0.177
AGGAAGAA	-0.186
GAAAGAAC	0.0631
ACGGGGAC	0.268
CGTTGACA	-0.115
GGCCTGGA	-0.169
CACAAGTC	-0.233
CCGTCCCA	0.1
ATGATAAT	0.0172
ATGCTCGA	-0.09
GATGGGTA	-0.132
AAAGTGGC	-0.0322
GCTCATAA	-0.0545
ATCAGGTC	-0.0659
AATAATCG	0.0741
AGTGTCCC	0.132
ACGGATAC	0.368
CTTTGACA	-0.154
CACCAGCC	0.0355
CTTCGCAA	-0.106
GGGCCATA	0.169
TATAGCGA	-0.226
